Measured values published in a collection of fitness landscapes (doi:10.1126/science.1257360).
Some of the results follow.

B1: PhoQ; a variant is named by its letters at X, in order, P23837 (parent)
chain: MKKLLRLFFPLSLRVRFLLATAAVVLVLSLAYGMVALIGYSVSFDKTTFRLLRGESNLFYTLAKWENNKLHVELPENIDKQSPTMTLIYDENGQLLWAQRDVPWLMKMIQPDWLKSNGFHEIEADVNDTSLLLSGDHSIQQQLQEVREDDDDAEMTHSVAVNVYPATSRMPKLTIVVVDTIPVELKSSYMVWSWFIYVLSANLLLVIPLLWVAAWWSLRPIEALAKEVRELEEHNRELLNPATTRELTSLVRNLNRLLKSERERYDKYRTTLTDLTHSLKTPLXXLQXXLRSLRSEKMSVSDAEPVMLEQISRISQQIGYYLHRASMRGGTLLSRELHPVAPLLDNLTSALNKVYQRKGVNISLDISPEISFVGEQNDFVEVMGNVLDNACKYCLEFVEISARQTDEHLYIVVEDDGPGIPLSKREVIFDRGQRVDTLRPGQGVGLAVAREITEQYEGKIVAGESMLGGARMEVIFGRQHSAPKDE

Variants of: B1
Assay: enrichment ratio after two sorts for PhoP signalling (ratio (wild type AVST 3.29)); higher = more functional
Conditions: with PhoP (E. coli)

Variant	enrichment ratio
NQKM	≤ 0.25
IGDL	≤ 0.25
SIVM	2.21
YKHK	≤ 0.25
MVFS	≤ 0.25
PDNS	≤ 0.25
DPPL	≤ 0.25
SHLH	4.88
DREF	≤ 0.25
LFRS	≤ 0.25
FCAT	≤ 0.25
RNLR	≤ 0.25
YRCH	≤ 0.25
MAKP	≤ 0.25
NKPF	≤ 0.25
WDCV	≤ 0.25
GQTG	≤ 0.25
HSGG	≤ 0.25
TDWD	≤ 0.25
FMIY	≤ 0.25
LPDC	≤ 0.25
KNMP	≤ 0.25
PMCN	≤ 0.25
VVYA	≤ 0.25
QINT	≤ 0.25
FIPC	≤ 0.25

Variant	enrichment ratio
KGRQ	≤ 0.25
SCPT	≤ 0.25
TQMV	7.29
VEAI	≤ 0.25
LFRQ	≤ 0.25
CILD	≤ 0.25
HNPY	≤ 0.25
KLVL	≤ 0.25
QYGF	≤ 0.25
MYTT	≤ 0.25
HLKS	≤ 0.25
WLTF	≤ 0.25
LTVR	≤ 0.25
VFVG	≤ 0.25
ANMN	4.6
GRNG	≤ 0.25
LQHV	≤ 0.25
MGYC	1.77
KYFN	≤ 0.25
HYNS	≤ 0.25
YWAN	≤ 0.25
NSQQ	≤ 0.25
EAYY	≤ 0.25
GGNK	≤ 0.25
TFVC	≤ 0.25
MVSE	≤ 0.25

Variant	enrichment ratio
ACPE	≤ 0.25
APFE	≤ 0.25
FYNC	≤ 0.25
LGEP	≤ 0.25
MCEL	≤ 0.25
MPHY	≤ 0.25
RYGM	≤ 0.25
MRLL	≤ 0.25
RQNC	≤ 0.25
MLEY	≤ 0.25
NGSR	≤ 0.25
LDNN	≤ 0.25
IAMR	≤ 0.25
PQFA	≤ 0.25
YFQS	≤ 0.25
QSGE	2.88
GRAQ	≤ 0.25
FQDK	≤ 0.25
LRTC	≤ 0.25
LMKK	≤ 0.25
FCSW	≤ 0.25
NHAQ	≤ 0.25
TIRH	≤ 0.25
VNWP	≤ 0.25
IVAI	≤ 0.25
YDQG	≤ 0.25

Variant	enrichment ratio
MAKN	≤ 0.25
LHPT	≤ 0.25
GQMV	1.67
FWIC	≤ 0.25
WIWW	≤ 0.25
EPVP	≤ 0.25
YNVP	≤ 0.25
FGVM	5.75
AWTM	≤ 0.25
QYQR	≤ 0.25
PWHT	≤ 0.25
SMGV	2.38
FYTS	≤ 0.25
HARD	≤ 0.25
TTIN	≤ 0.25
DRWN	≤ 0.25
WPED	≤ 0.25
AAWM	≤ 0.25
VAEM	≤ 0.25
PPEQ	≤ 0.25
NWGF	≤ 0.25
VTCW	≤ 0.25
RDGG	≤ 0.25
AMPI	0.985
IVMS	≤ 0.25
LCHA	≤ 0.25

Variant	enrichment ratio
WLPC	≤ 0.25
IYSI	≤ 0.25
LPVA	≤ 0.25
NHLQ	≤ 0.25
HGEY	≤ 0.25
IWHA	≤ 0.25
FCAS	≤ 0.25
NPIF	≤ 0.25
PEPS	≤ 0.25
ACMY	≤ 0.25
HVSL	≤ 0.25
ATRY	≤ 0.25
DYTA	≤ 0.25
DHWK	≤ 0.25
ISVG	≤ 0.25
YPHP	≤ 0.25
LYRG	≤ 0.25
VIAA	≤ 0.25
WHCL	≤ 0.25
RHES	≤ 0.25
LHSA	≤ 0.25
ICMI	≤ 0.25
PHWD	≤ 0.25
KCNT	≤ 0.25
MFDF	≤ 0.25
PMAK	≤ 0.25

Variant	enrichment ratio
PWDR	≤ 0.25
WMLG	≤ 0.25
EFPD	≤ 0.25
YFGG	≤ 0.25
SCCY	5.42
AYAW	≤ 0.25
PETR	≤ 0.25
SCLF	8.98
MYRR	≤ 0.25
EHLL	≤ 0.25
YHTV	≤ 0.25
GSHG	≤ 0.25
AWKV	≤ 0.25
WSLF	≤ 0.25
VAPK	≤ 0.25
FIWA	≤ 0.25
MRYW	≤ 0.25
VKGT	≤ 0.25
IKHY	≤ 0.25
TGDL	≤ 0.25
LDNH	≤ 0.25
KEWV	≤ 0.25
RDTP	≤ 0.25
